# About 420 (0.12%) of roughly 360,000 compounds were called active. Inconclusive means that the source gave no clear call. Such entries were picked first, then a sample of the others. Rule as the data show it: active = inhibition above about 30%; inconclusive = no clear call, values can overlap the other calls; inactive = below that.
# Molecular target: Lethal factor (Bacillus anthracis) (UniProt P15917)
# Experiment: anthrax lethal factor cleavage blockers – biochemical, multiplex microsphere, MLPCN library, primary screen (AID 588501); also: plate controls were buffer without enzyme for full effect and enzyme alone for no effect
# Conditions: multiplex microsphere protease cleavage assay, LF; at 10 µM; stronger effect = higher value
# UniProt P15917, sequence (P15917 whole entry, looked up): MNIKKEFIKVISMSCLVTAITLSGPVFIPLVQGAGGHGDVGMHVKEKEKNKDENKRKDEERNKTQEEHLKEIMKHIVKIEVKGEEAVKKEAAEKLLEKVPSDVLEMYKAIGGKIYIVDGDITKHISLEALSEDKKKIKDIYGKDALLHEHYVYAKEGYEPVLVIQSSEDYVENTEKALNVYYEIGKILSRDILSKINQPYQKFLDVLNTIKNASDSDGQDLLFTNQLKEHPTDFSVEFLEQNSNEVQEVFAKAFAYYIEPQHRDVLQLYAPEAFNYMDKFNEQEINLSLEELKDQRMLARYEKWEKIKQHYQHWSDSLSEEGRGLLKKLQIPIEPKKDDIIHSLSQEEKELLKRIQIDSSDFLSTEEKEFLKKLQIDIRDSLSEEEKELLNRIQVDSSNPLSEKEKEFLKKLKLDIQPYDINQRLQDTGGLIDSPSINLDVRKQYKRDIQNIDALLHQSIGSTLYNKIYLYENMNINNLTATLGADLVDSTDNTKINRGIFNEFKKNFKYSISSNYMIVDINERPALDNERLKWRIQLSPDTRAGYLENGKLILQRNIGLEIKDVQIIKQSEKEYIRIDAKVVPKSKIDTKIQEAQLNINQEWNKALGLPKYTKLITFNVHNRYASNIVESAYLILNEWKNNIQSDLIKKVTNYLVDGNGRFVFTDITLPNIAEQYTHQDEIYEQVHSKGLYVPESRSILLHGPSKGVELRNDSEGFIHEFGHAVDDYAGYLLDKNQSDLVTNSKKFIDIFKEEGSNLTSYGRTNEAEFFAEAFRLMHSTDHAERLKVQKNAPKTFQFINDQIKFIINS
row,SMILES,inhibition
1,CCOc1ccc(N(CC(=O)NCc2ccc(OC)cc2)C(=O)CCC(=O)Nc2nccs2)cc1,inconclusive: -5.7%
2,CCOC(=O)c1c(C)n(C)c2ccc(OC)c(NC(=O)CN3CCN(C4CCCCC4)CC3)c12,inconclusive: -8.9%
3,COCCN(C(=O)COC(=O)c1ccc(C)o1)c1c(N)n(Cc2ccccc2)c(=O)[nH]c1=O,inconclusive: -3.5%
4,C#CCOc1ccc(CNC[C@H]2O[C@@H](n3ccc(N)nc3=O)[C@H](O)[C@@H]2O)cc1,inactive: 3.6%
5,CCOc1ccc2oc(-c3ccccc3)c(C(=O)O)c2c1,inactive: 3.8%
6,COc1ccc(OC)c(-n2cnnn2)c1,inconclusive: 5.8%
7,Cc1cccc(/C=N/NC(=O)NC23CC4CC(CC(C4)C2)C3)n1,inconclusive: -5.6%
8,C[C@H](NC(=O)c1ccccc1)C(=O)OCC(=O)Nc1sccc1C(N)=O,inconclusive: 5.9%
9,Cc1cc(/C=C2/SC(=S)N(c3cccc(C(F)(F)F)c3)C2=O)c(C)n1-c1cccnc1,active: 45.5%
10,COc1ccc(CCNC(=O)CNS(=O)(=O)c2ccc(Cl)cc2)cc1,inconclusive: 16.7%
11,Cc1cc(S(=O)(=O)NCC(c2ccc3c(c2)OCO3)N2CCOCC2)ccc1F (configuration not stated),inconclusive: 5.6%
12,Cc1csc(NC(=O)COCC(=O)O)c1-c1nc2ccccc2s1,inconclusive: -9.2%
13,CC(C)(Oc1ccc(Cl)cc1)C(=O)OCC(=O)N1CCN(c2ccccc2)CC1,inconclusive: 3.2%
14,COc1cccc(/C=N/NC(=O)c2cc(C34CC5CC(CC(C5)C3)C4)[nH]n2)c1,inactive: -1.9%
15,CCOc1ccccc1C1C(C#N)=C(N)Oc2cc(C)n(Cc3ccccn3)c(=O)c21 (configuration not stated),inconclusive: -19.3%
16,COc1cc(C(=O)NCc2ccc3c(c2)cc(C)n3C)cc(OC)c1OC,active: 34.6%
17,CCN(C(=O)c1ccco1)C1C2CC3CC(C2)CC1C3 (configuration not stated),inactive: 0.4%
18,COc1ccc(NC(C)=O)cc1NC(=O)c1cccc(S(=O)(=O)N2CCN(Cc3ccccc3)CC2)c1,inconclusive: -1.8%
19,O=C(CNC(=O)c1sc2ccccc2c1Cl)Nc1ccccc1F,inconclusive: -1.5%

row,SMILES,inhibition
1,CC(OC(=O)c1nc(Cl)ccc1Cl)C(=O)c1ccccc1 (configuration not stated),inconclusive: 1.9%
2,CCOC(CCNC(=O)c1cn(C)c(=O)c2c1c1ccccc1n2C)OCC,active: 69.3%
3,O=C(Cc1cccs1)NCCS(=O)(=O)N1CCN(c2ccccc2F)CC1,inactive: -3%
4,CCN1CCN(CCCNC(=O)c2ccc(NC(=O)C3=CSCCO3)cc2)CC1,inactive: -1.2%
5,COc1ccccc1C(=O)NC(=O)COC(=O)c1cnc(C)cn1,inconclusive: 3.4%
6,O=S(=O)(NCCSc1ccccc1)c1cccs1,inconclusive: -4%
7,Cc1cccc(C)c1NC(=O)C1CSC2(C)CCC(=O)N12 (configuration not stated),inconclusive: 3.1%
8,CCC(C)[C@H](NC(=O)N1CCCCC1)C(=O)OC (some centres not stated),active: 34.7%
9,CCCS(=O)(=O)N1CCN(CC2CC=CCC2)CC1 (configuration not stated),inconclusive: -14.2%
10,CN(C)C(=O)COn1c(SCC(=O)N(C)C)nc2ccccc2c1=O,inactive: -3.6%
11,CC(C)=C1SC(N2CCN(c3cccc(C(F)(F)F)c3)CC2)=NC1=O,inconclusive: -31.3%
12,COc1ccccc1CNC(=O)CSc1nc(=O)n(Cc2ccncc2)c2c1CCC2,inconclusive: -2.6%
13,O=C(NCC(c1ccco1)N1CCc2ccccc2C1)c1cccc(Br)c1 (configuration not stated),inconclusive: 2.3%
14,CN(C)S(=O)(=O)N1CCN(c2cccc(Cl)c2)CC1,inactive: -0.9%
15,CCCS(=O)(=O)Nc1c(C(=O)OC)[nH]c2ccccc12,inactive: -2.4%
16,CCC/C(=N\NC(=O)C1CC1)c1ccccc1,inconclusive: -12.9%
17,CCCCN1CC(N2CCN(C)CC2)CS1(=O)=O (configuration not stated),inactive: 1.2%
18,CN(C)c1cc(-c2ccc(C#N)cc2)oc(=O)c1Cl,inconclusive: -13.4%
19,O=C(CCNS(=O)(=O)c1ccc2ccccc2c1)NCCOc1ccccc1,inconclusive: -2.5%

row,SMILES,inhibition
1,Cc1cccc(-c2noc(CN(C)C(=O)COc3ccccc3)n2)c1,inconclusive: -4.3%
2,C=CCN(C(=O)c1ccc(Cl)cc1)c1ccccc1C(=O)NCC(=O)O,inconclusive: 5.7%
3,COc1ccccc1C(=O)NC(=O)Cn1nc(C)c([N+](=O)[O-])c1C,inconclusive: -2.9%
4,Cc1ccc(S(=O)(=O)N2CCOCC2)cc1NC(=O)COC(=O)CCc1c[nH]c2ccccc12,inactive: -10.5%
5,CCCNC(=O)C1(C)CCN(C(=O)c2ccc3snnc3c2)C1 (configuration not stated),inactive: 0.1%
6,Cc1oc(=O)c(NC(=O)c2ccc(Cl)cc2)cc1C(=O)c1ccccc1,inconclusive: -18.9%
7,O=[N+]([O-])c1ccccc1S(=O)(=O)N1CCN(C2CCCC2)CC1,inconclusive: -1.9%
8,CN1CCN(S(=O)(=O)c2ccc(N3CCN(c4ccccc4O)CC3)c([N+](=O)[O-])c2)CC1,inconclusive: 0.2%
9,CC(=O)c1ccc(NC(=O)CSc2cn[nH]n2)cc1,inactive: -0.5%
10,COc1ccc(N/C(N)=N/c2nc(CSc3ccc(C)cc3)cc(=O)[nH]2)cc1,inactive: 0.2%
11,O=C(COC(=O)CCNS(=O)(=O)c1ccccc1)Nc1ccc(OC(F)F)cc1,inconclusive: -2.7%
12,CN(CC(=O)Nc1cccc(F)c1)C(=O)c1cc(S(=O)(=O)N2CCCCC2)ccc1N1CCOCC1,inconclusive: 5.5%
13,COC(=O)c1oc2ccc(Br)cc2c1NC(=O)CCN1CCOCC1,inconclusive: 10.8%
14,CC(C)C(OC(=O)c1nsc(Cl)c1Cl)C(=O)NCC1CCCO1 (configuration not stated),inactive: -2.1%
15,Nc1cccc(Oc2c(F)c(F)c(Oc3cccc(N)c3)c(F)c2F)c1,inconclusive: 1.6%
16,CCOC(=O)Nc1cccc(OCC(=O)Nc2ccc3c(c2)CCC3)c1,inconclusive: 22.3%
17,CCCCNc1c([N+](=O)[O-])ncn1C,inconclusive: -7.4%
18,CC(C)CC(=O)NC(=S)Nc1ccc(N2CCCC2)c(Cl)c1,inconclusive: -3.6%
19,CCOC(=O)c1c(C)[nH]c(C(=O)OCC(=O)NCc2ccc(F)cc2)c1C,inconclusive: 2.8%

# Reference: PubChem BioAssay AID588501 (NMMLSC, 2011)
